Measurements as given in PubChem BioAssay (NCI).
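These data come from cells grown in 96-well plates and exposed to compound for 48 hours at five concentrations. GI50 = concentration required for 50% inhibition of growth. TGI denotes the concentration required for complete inhibition of growth.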

Tested on: NCI-H322M lung
Assay: inhibition of tumour cell growth, NCI panel, 48 h

## CCC(=C(c1ccc(OCCN2CCCCCC2)cc1)c1ccc(OCCN2CCCCCC2)cc1)c1ccc(Cl)cc1
  GI50: 4.32 µM
  TGI: 8.81 µM
